Results as given in patent US20160074301A1, “ANTI-AGING SKIN CARE COMPOSITIONS AND REGIMENS” (The Procter & Gamble Company, priority 2014, published 2016).

Legend:
[1] = tested on: eigengene for the "Cell Adhesion and Junction" theme; assay: Eigengene of younger-appearance / Cell Adhesion and Junction co-expression module, treated cultured human keratinocytes
[2] = tested on: overall appearance associated genes; assay: Effect on overall appearance associated genes

Substance | effect on eigengene, Cell Adhesion and Junction theme (FIG. 4) [1] | effect on eigengene, Cell Adhesion and Junction theme (FIG. 4) ([1]; listed as Pal-KTTS) | anti-aging benefit on the overall appearance associated genes [2]
palmitoyl-lysine-threonine-threonine-lysine-serine [Pal-KTTKS] | significantly up-regulate | significantly increase | 
palmitoyl-lysine-threonine [Pal-KT] | significantly up-regulate |  | strong anti-aging benefit

Where two headings read alike, the source gives them in different places.
